The source of these data is the RNAGym collection of RNA variant scans (doi:10.1093/nar/gkz1192).

The source gives no read counts; variants with many changes may rest on few reads.

The chains are these.
B1: CPEB3 Ribozyme (parent)
chain: UAACAGGGGGCCACAGCAGAAGCGUUCACGUCGCAGCCCCUGUCAGAUUCUGGUGAAUCUGCGAAUUCUGCUGUAUAUCUC

The variants in the series derive from B1. Nature of the series: self-cleavage, relative activity (ratio to wild type); higher = more cleavage; in vitro, sequencing. The method, boiled down:
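For each CPEB3 ribozyme variant, relative activity is its cleaved/total read fraction divided by the unmutated ribozyme's. Barcoded error-prone PCR libraries were transcribed by T7 RNA polymerase (5 hours, 37°C) and held in DNase I for 15 min before an EDTA stop, with cleavage occurring throughout. Template-switching reverse transcription and Illumina sequencing were used to read the RNAs. A 5-read minimum applied, and results are the mean of three batches.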
Consider UAACAGGGGGCCACAGCAGAAGCGUUCACGUCGCAGCCCCUGUCAGAUUCUGGUGAAUCUGCGAAUUCUGCAGUAUAACCC, for which the self-cleavage came out at 1.13. With UAACAGGGGGCCACAGCAGAAGCGUUCACGUCGCAGCCCCUGUCAGAUUCUGGUGAAUCUGCGAAUUCUGCCGUUUACCUC the figure was 1.13. In the case of UAACAGGGGGCCACAGCAGAAGCGUUCACGUCGCAGCCCCUGUCAGAUUCUGGUGAAUCUGCGAACUCCGCUGUAAACCUC it was 0.26; in that of UAACAGGGGGCCACAGCAGAAGCGUUCACGUCGCAGCCCCUGUCAGAUUCUGGUGAAUCUGCGAACUCCGCUGUAUAACUC, 0.21; in that of UAACAGGGGGCCACAGCAGAAGCGUUCACGUCGCAGCCCCUGUCAGAUUCUGGUGAAUCUGCGAAUUCCGCUGUGUAUCCC, 0.44. In the case of UAACAGGGGGCCACAGCAGAAGCGUUCACGUCGCAGCCCCUGUCAGAUUCUGGUGAAUCUGCGAAUUCCGCUGUGUAUCGC it was 0.55; in that of UAACAGGGGGCCACAGCAGAAGCGUUCACGUCGCAGCCCCUGUCAGAUUCUGGUGAAUCUGCGAAUUAUGCUGUGAAUCUC, 0.57; in that of UAACAGGGGGCCACAGCAGAAGCGUUCACGUCGCAGCCCCUGUCAGAUUCUGGUGAAUCUGCGAAUUUUGCCGUGUAUCUC, 0.28. In the case of UAACAGGGGGCCACAGCAGAAGCGUUCACGUCGCAGCCCCUGUCAGAUUCUGGUGAAUCUGCGAAUUCCGCUGUACUUCUC, the self-cleavage was found to be 0.88. On to UAACAGGGGGCCACAGCAGAAGCGUUCACGUCGCAGCCCCUGUCAGAUUCUGGUGAAUCUGCGAACUCUGCCGUACAUCUC, for which the self-cleavage turned out to be 0.47. UAACAGGGGGCCACAGCAGAAGCGUUCACGUCGCAGCCCCUGUCAGAUUCUGGUGAAUCUGCGAAUCCUGCUGCGUAUCUC: the self-cleavage came out at 0.24. In the case of UAACAGGGGGCCACAGCAGAAGCGUUCACGUCGCAGCCCCUGUCAGAUUCUGGUGAAUCUGCGAACUCAGCUGUACAUCUC it was 0.46. With UAACAGGGGGCCACAGCAGAAGCGUUCACGUCGCAGCCCCUGUCAGAUUCUGGUGAAUCUGCGAAUCCAGCUGCAUAUCUC the figure was 0.42. With UAACAGGGGGCCACAGCAGAAGCGUUCACGUCGCAGCCCCUGUCAGAUUCUGGUGAAUCUGCGAAUCUUGCCGUAUAUCUC the figure was 0.31; with UAACAGGGGGCCACAGCAGAAGCGUUCACGUCGCAGCCCCUGUCAGAUUCUGGUGAAUCUGCGAAUUCUGCCGUAUGACUC, 1.2; with UAACAGGGGGCCACAGCAGAAGCGUUCACGUCGCAGCCCCUGUCAGAUUCUGGUGAAUCUGCGAAUUACGCUGUAUACCUC, 0.35. For the variant UAACAGGGGGCCACAGCAGAAGCGUUCACGUCGCAGCCCCUGUCAGAUUCUGGUGAAUCUGCGAAUUCUGCCAUAUAACUC, the self-cleavage was determined as 1.29. With UAACAGGGGGCCACAGCAGAAGCGUUCACGUCGCAGCCCCUGUCAGAUUCUGGUGAAUCUGCGAAUCCUACUGUAUAUCCC, the self-cleavage was determined as 0.6. In the case of UAACAGGGGGCCACAGCAGAAGCGUUCACGUCGCAGCCCCUGUCAGAUUCUGGUGAAUCUGCGAAUUCAGGCGUAUAACUC it was 0.12; in that of UAACAGGGGGCCACAGCAGAAGCGUUCACGUCGCAGCCCCUGUCAGAUUCUGGUGAAUCUGCGAAUCCUGCUGAAGAUCUC, 0.44; in that of UAACAGGGGGCCACAGCAGAAGCGUUCACGUCGCAGCCCCUGUCAGAUUCUGGUGAAUCUGCGAAUUGCGCUGUAGAUCUC, 0.57.

For UAACAGGGGGCCACAGCAGAAGCGUUCACGUCGCAGCCCCUGUCAGAUUCUGGUGAAUCUGCGAAUUCUGCCGUGUAACCC, the self-cleavage worked out at 1.04.

As for UAACAGGGGGCCACAGCAGAAGCGUUCACGUCGCAGCCCCUGUCAGAUUCUGGUGAAUCUGCGAACUCUGCCGCAUAUCUC, the self-cleavage came to 0.76. In the case of UAACAGGGGGCCACAGCAGAAGCGUUCACGUCGCAGCCCCUGUCAGAUUCUGGUGAAUCUGCGAACUCAGCCGUAUACCUC, the self-cleavage was found to be 0.23. For the variant UAACAGGGGGCCACAGCAGAAGCGUUCACGUCGCAGCCCCUGUCAGAUUCUGGUGAAUCUGCGAAUCCAGCUGUAUUUCUC, the self-cleavage is 0.46. On to UAACAGGGGGCCACAGCAGAAGCGUUCACGUCGCAGCCCCUGUCAGAUUCUGGUGAAUCUGCGAAUUCUGCCGUGUACCUC, for which the self-cleavage amounted to 1.14. With UAACAGGGGGCCACAGCAGAAGCGUUCACGUCGCAGCCCCUGUCAGAUUCUGGUGAAUCUGCGAAUUCCGCUGUACAUCUG the figure was 0.73; with UAACAGGGGGCCACAGCAGAAGCGUUCACGUCGCAGCCCCUGUCAGAUUCUGGUGAAUCUGCGAACUCCGCUGUACAUCUC, 0.41; with UAACAGGGGGCCACAGCAGAAGCGUUCACGUCGCAGCCCCUGUCAGAUUCUGGUGAAUCUGCGAAUCGUGCUGUAUAUCUU, 0.19. For the variant UAACAGGGGGCCACAGCAGAAGCGUUCACGUCGCAGCCCCUGUCAGAUUCUGGUGAAUCUGCGAAUCAUGCUGUAUAUCAC, the self-cleavage was 0.18. In the case of UAACAGGGGGCCACAGCAGAAGCGUUCACGUCGCAGCCCCUGUCAGAUUCUGGUGAAUCUGCGAAUUCAGCUGUACAUCCC it was 0.88; in that of UAACAGGGGGCCACAGCAGAAGCGUUCACGUCGCAGCCCCUGUCAGAUUCUGGUGAAUCUGCGAAUCCUGCUGUUCAUCUC, 0.37. Consider UAACAGGGGGCCACAGCAGAAGCGUUCACGUCGCAGCCCCUGUCAGAUUCUGGUGAAUCUGCGAAUCACGCUGUAUAUCUC, for which the self-cleavage worked out at 0.29. As for UAACAGGGGGCCACAGCAGAAGCGUUCACGUCGCAGCCCCUGUCAGAUUCUGGUGAAUCUGCGAAUUAUGCUGUGUACCUC, the self-cleavage stood at 0.26. Consider UAACAGGGGGCCACAGCAGAAGCGUUCACGUCGCAGCCCCUGUCAGAUUCUGGUGAAUCUGCGAAUUCUGCCGUAUAAAUC, for which the self-cleavage was found to be 1.3.
